Results from patent publication US9869668B2, “PDGF as a biomarker for predicting resistance or effect of c-Met targeting drugs” (SAMSUNG ELECTRONICS CO., LTD., priority 2014, dated 2018).

Assays:
Details in all cases: among the four affinity-matured antibodies
c-Met [1] = molecular target: T1, c-Met (Homo sapiens, UniProt P08581); assay: Affinity for c-Met; assay type: binding
Akt phosphorylation = assay: Akt phosphorylation; assay type: cell-based
c-Met [2] = molecular target: T1, c-Met; assay: c-Met degradation degree; assay type: cell-based

T1 sequence (P08581 25-1390): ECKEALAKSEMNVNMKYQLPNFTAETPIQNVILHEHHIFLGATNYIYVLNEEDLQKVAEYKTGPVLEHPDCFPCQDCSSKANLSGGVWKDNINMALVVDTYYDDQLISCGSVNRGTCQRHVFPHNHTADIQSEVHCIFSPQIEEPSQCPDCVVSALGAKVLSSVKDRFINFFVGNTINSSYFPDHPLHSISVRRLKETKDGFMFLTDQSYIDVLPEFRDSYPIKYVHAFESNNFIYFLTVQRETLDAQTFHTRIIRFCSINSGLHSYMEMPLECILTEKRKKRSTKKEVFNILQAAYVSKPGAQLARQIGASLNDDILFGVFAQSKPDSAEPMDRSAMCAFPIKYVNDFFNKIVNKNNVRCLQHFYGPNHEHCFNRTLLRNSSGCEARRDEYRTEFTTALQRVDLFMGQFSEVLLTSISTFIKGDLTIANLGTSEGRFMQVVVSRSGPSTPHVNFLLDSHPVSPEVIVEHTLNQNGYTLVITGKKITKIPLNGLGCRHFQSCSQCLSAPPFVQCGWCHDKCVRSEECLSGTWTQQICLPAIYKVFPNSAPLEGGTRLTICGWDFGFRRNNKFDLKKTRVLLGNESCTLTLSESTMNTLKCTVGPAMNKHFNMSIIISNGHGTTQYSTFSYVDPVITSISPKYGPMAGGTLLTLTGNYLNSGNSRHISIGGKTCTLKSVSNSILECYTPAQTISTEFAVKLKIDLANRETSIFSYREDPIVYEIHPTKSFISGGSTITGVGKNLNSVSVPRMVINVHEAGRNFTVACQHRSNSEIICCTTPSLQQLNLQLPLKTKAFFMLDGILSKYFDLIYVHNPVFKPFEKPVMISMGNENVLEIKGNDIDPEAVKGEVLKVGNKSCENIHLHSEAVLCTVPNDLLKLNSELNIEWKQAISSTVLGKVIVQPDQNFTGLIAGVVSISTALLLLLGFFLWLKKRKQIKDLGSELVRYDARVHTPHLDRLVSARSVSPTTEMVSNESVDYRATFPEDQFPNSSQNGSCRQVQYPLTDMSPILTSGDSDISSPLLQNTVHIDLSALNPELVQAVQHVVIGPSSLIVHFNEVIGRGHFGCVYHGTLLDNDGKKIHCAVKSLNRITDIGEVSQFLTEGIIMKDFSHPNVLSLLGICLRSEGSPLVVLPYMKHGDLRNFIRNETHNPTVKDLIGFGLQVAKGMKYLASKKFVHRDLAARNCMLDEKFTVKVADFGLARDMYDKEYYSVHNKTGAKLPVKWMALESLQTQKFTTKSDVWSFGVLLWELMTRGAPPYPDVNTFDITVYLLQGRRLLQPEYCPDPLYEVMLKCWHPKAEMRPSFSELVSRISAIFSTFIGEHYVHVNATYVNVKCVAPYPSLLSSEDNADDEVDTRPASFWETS

affinity for c-Met (c-Met [1]): highest | c-Met degradation degree (c-Met [2]): lowest
B1: huAbF46-H4-A1: affinity-matured humanized anti-c-Met antibody, L3-1 origin (antibody)
heavy: EVQLVESGGGLVQPGGSLRLSCAASGFTFTDYYMSWVRQAPGKGLEWLGFIRNKANGYTTEYSASVKGRFTISRDNSKNTLYLQMNSLRAEDTAVYYCARDNWFAYWGQGTLVTVSSASTKGPSVFPLAPSSKSTSGGTAALGCLVKDYFPEPVTVSWNSGALTSGVHTFPAVLQSSGLYSLSSVVTVPSSSLGTQTYICNVNHKPSNTKVDKKVEPKSCDCH[human IgG1 Fc not given here]
light: DIQMTQSPSSLSASVGDRVTITCKSSQSLLASGNQNNYLAWHQQKPGKAPKMLIIWASTRVSGVPSRFSGSGSGTDFTLTISSLQPEDFATYYCQQSYSRPYTFGQGTKVEIKRTVAAPSVFIFPPSDEQLKSGTASVVCLLNNFYPREAKVQWKVDNALQSGNSQESVTEQDSKDSTYSLSSTLTLSKADYEKHKVYACEVTHQGLSSPVTKSFNRGEC
Akt phosphorylation (Akt phosphorylation): lowest
